Reference: patent US20260166128A1, “HUMAN AMYLIN ANALOG, AND DERIVATIVE THEREOF AND USE THEREOF” (priority 2022, published 2026)
Not every detail of the peptide structures is certain; ends, links or a residue may be inferred. Numbered stars: 1 amine (or outer) side, 2 acyl side, 3 side chain; on linkers, the order of the positions; unused ones are H or OH. Bridge positions count the residues as written; N and C are the ends. Side chains are listed from the residue outwards. Peptide text beside a SMILES is read from it. * marks the point of attachment. C20 diacid = O=C(O)CCCCCCCCCCCCCCCCCCC(=O)*; γGlu = O=C(O)[C@H](CCC(=O)[*:2])N[*:1]

Experiment: Freeze-thaw stability of derivatives (freeze-thaw yield by liquid chromatography)
Assay type: physicochemical
Conditions: for Dissolution property: appearance after dissolution at 0.2 mg/ml in 20 mM phosphate buffer solution (PB) (pH 7.0); for Freeze storage property: appearance after overnight storage at −20° C. and thawing to room temperature, 0.2 mg/ml in 20 mM PB (pH 7.0); for Freeze storage yield: concentration of polypeptide after freezing and thawing / concentration before, by liquid chromatography, −20° C. overnight
Outline: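 Lyophilised peptide derivative dissolved at 0.2 mg/ml in 20 mM phosphate buffer, pH 7.0, frozen overnight at −20° C, then thawed at room temperature. Peptide concentration before and after freeze-thaw measured by reversed-phase HPLC on centrifuged supernatant; yield = post-thaw/pre-thaw concentration.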

**Q.** Which Dissolution property does the source give for CC[C@H](C)[C@H](NC(=O)[C@H](C)NC(=O)[C@H](CCCCNC(=O)CC[C@H](NC(=O)CCCCCCCCCCCCCCCCCCC(=O)O)C(=O)O)NC(=O)[C@H](CC(C)C)NC(=O)[C@H](CC(N)=O)NC(=O)[C@H](CC(N)=O)NC(=O)[C@H](CO)NC(=O)[C@H](CO)NC(=O)[C@H](Cc1c[nH]cn1)NC(=O)[C@H](CCCNC(=N)N)NC(=O)[C@H](CC(C)C)NC(=O)[C@H](Cc1ccccc1)NC(=O)[C@H](CCC(=O)O)NC(=O)[C@H](C)NC(=O)[C@H](CC(C)C)NC(=O)[C@H](CCCNC(=N)N)NC(=O)[C@H](CCC(N)=O)NC(=O)[C@@H](NC(=O)[C@H](C)NC(=O)[C@@H]1CSSC[C@H](NC(=O)[C@@H](N)CCCCN)C(=O)N[C@@H](CC(N)=O)C(=O)N[C@@H]([C@@H](C)O)C(=O)N[C@@H](C)C(=O)N[C@@H]([C@@H](C)O)C(=O)N1)[C@@H](C)O)C(=O)N[C@@H](CC(C)C)C(=O)N1CCC[C@H]1C(=O)N[C@@H](CO)C(=O)N[C@H](C(=O)N[C@@H](CC(N)=O)C(=O)N[C@H](C(=O)NCC(=O)N[C@@H](CO)C(=O)N[C@@H](CC(N)=O)C(=O)N[C@H](C(=O)N1CCC[C@H]1C(N)=O)[C@@H](C)O)C(C)C)[C@@H](C)O [PD035] (H-KCNTATCATQRLAEFLRHSSNNLK([γGlu-C20 diacid])AILPSTNVGSNTP-NH2; disulfide 2-7) here?
**A.** Its Dissolution property is “Muddy”.

**Q.** What about the Freeze storage property of the same compound?
**A.** Its Freeze storage property is “Muddy”.

**Q.** What about the Freeze storage yield of the same compound?
**A.** Its Freeze storage yield is 0.00%.

**Q.** Which Dissolution property does the source give for CC[C@H](C)[C@H](NC(=O)[C@H](C)NC(=O)[C@H](CCCCNC(=O)CC[C@H](NC(=O)CCCCCCCCCCCCCCCCCCC(=O)O)C(=O)O)NC(=O)[C@H](CC(C)C)NC(=O)[C@H](CC(N)=O)NC(=O)[C@H](CC(N)=O)NC(=O)[C@H](CO)NC(=O)[C@H](CO)NC(=O)[C@H](Cc1c[nH]cn1)NC(=O)[C@H](CCCNC(=N)N)NC(=O)[C@H](CC(C)C)NC(=O)[C@H](Cc1ccccc1)NC(=O)[C@H](CCC(=O)O)NC(=O)[C@H](C)NC(=O)[C@H](CC(C)C)NC(=O)[C@H](CCCNC(=N)N)NC(=O)[C@H](CCC(N)=O)NC(=O)[C@@H](NC(=O)[C@H](C)NC(=O)[C@@H]1CSSC[C@H](NC(=O)[C@@H](N)CCCCN)C(=O)N[C@@H](CC(N)=O)C(=O)N[C@@H]([C@@H](C)O)C(=O)N[C@@H](C)C(=O)N[C@@H]([C@@H](C)O)C(=O)N1)[C@@H](C)O)C(=O)N[C@@H](CC(C)C)C(=O)N[C@@H](CO)C(=O)N1CCC[C@H]1C(=O)N[C@H](C(=O)N[C@@H](CC(N)=O)C(=O)N[C@H](C(=O)NCC(=O)N[C@@H](CO)C(=O)N[C@@H](CC(N)=O)C(=O)N[C@H](C(=O)N1CCC[C@H]1C(N)=O)[C@@H](C)O)C(C)C)[C@@H](C)O [PD036] (H-KCNTATCATQRLAEFLRHSSNNLK([γGlu-C20 diacid])AILSPTNVGSNTP-NH2; disulfide 2-7) here?
**A.** Its Dissolution property is “Muddy”.

**Q.** What about the Freeze storage property of the same compound?
**A.** The Freeze storage property was “Muddy”.

**Q.** And the Freeze storage yield?
**A.** The Freeze storage yield was 0.00%.

**Q.** Which Dissolution property does the source give for CC[C@H](C)[C@H](NC(=O)[C@@H]1CCCN1C(=O)[C@H](CCCCNC(=O)CC[C@H](NC(=O)CCCCCCCCCCCCCCCCCCC(=O)O)C(=O)O)NC(=O)[C@H](CC(C)C)NC(=O)[C@H](CC(N)=O)NC(=O)[C@H](CC(N)=O)NC(=O)[C@H](CO)NC(=O)[C@H](CO)NC(=O)[C@H](Cc1c[nH]cn1)NC(=O)[C@H](CCCNC(=N)N)NC(=O)[C@H](CC(C)C)NC(=O)[C@H](Cc1ccccc1)NC(=O)[C@H](CCC(=O)O)NC(=O)[C@H](C)NC(=O)[C@H](CC(C)C)NC(=O)[C@H](CCCNC(=N)N)NC(=O)[C@H](CCC(N)=O)NC(=O)[C@@H](NC(=O)[C@H](C)NC(=O)[C@@H]1CSSC[C@H](NC(=O)[C@@H](N)CCCCN)C(=O)N[C@@H](CC(N)=O)C(=O)N[C@@H]([C@@H](C)O)C(=O)N[C@@H](C)C(=O)N[C@@H]([C@@H](C)O)C(=O)N1)[C@@H](C)O)C(=O)N[C@@H](CC(C)C)C(=O)N1CCC[C@H]1C(=O)N[C@@H](CO)C(=O)N[C@H](C(=O)N[C@@H](CC(N)=O)C(=O)N[C@H](C(=O)NCC(=O)N[C@@H](CO)C(=O)N[C@@H](CC(N)=O)C(=O)N[C@H](C(=O)N1CCC[C@H]1C(N)=O)[C@@H](C)O)C(C)C)[C@@H](C)O [PD037] (H-KCNTATCATQRLAEFLRHSSNNLK([γGlu-C20 diacid])PILPSTNVGSNTP-NH2; disulfide 2-7) here?
**A.** Its Dissolution property is “Muddy”.

**Q.** And the Freeze storage property?
**A.** Its Freeze storage property is “Muddy”.

**Q.** And the Freeze storage yield?
**A.** Its Freeze storage yield is 98.81%.
